In paper PMC10362054, “p53 restoration in small cell lung cancer identifies a latent cyclophilin-dependent necrosis mechanism” (Nature Communications, 2023):
Results are given in words; binding and its absence hold for the method and conditions named. Binding seen in cells or lysates may run through a third protein. Some results given as binding are weak or reduced against the parent protein; the word gives no strength. Each block holds one molecule with its values, some of them ahead of it.

By UniProt entry, the sequences of proteins in these tests, tags left out. Residues count along the entry.
UniProt P17742: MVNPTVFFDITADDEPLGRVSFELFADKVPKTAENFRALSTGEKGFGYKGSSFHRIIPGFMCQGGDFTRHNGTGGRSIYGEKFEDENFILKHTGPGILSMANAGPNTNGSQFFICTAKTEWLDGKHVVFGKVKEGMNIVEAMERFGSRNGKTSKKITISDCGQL
UniProt Q9QZH3: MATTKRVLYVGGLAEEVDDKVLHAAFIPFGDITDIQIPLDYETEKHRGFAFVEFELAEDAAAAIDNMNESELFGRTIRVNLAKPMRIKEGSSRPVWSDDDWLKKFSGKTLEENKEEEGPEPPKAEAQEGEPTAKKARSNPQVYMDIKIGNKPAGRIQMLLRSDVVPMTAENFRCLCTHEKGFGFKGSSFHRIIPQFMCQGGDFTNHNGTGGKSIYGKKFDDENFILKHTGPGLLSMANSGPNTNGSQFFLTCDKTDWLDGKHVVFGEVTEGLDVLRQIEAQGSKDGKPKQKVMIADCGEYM
UniProt Q99KR7, residues 30-206: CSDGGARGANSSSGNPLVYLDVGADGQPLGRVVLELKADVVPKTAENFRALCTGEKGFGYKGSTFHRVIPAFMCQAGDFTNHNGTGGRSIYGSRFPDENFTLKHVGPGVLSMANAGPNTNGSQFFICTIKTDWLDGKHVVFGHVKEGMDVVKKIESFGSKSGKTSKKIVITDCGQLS

Legend:
[1] = target: FLAG-PPIA (cyclophilin A) (mouse) (UniProt P17742); test: co-IP; as a1, but 24 h after CsA treatment of the cells; Cyclosporin-A included during lysis, anti-FLAG gel incubation and washes
[2] = target: FLAG-PPIA (cyclophilin A) (mouse) (UniProt P17742); test: co-IP; HEK293T cells overexpressing FLAG-Ppia or FLAG-Ppie and HA-Trp53; lysis in NP-40 buffer (0.1% NP-40, 15 mM Tris-HCl pH 7.4, 1 mM EDTA, 150 mM NaCl, 1 mM MgCl2, 10% glycerol); anti-FLAG M2 affinity gel, 4 °C, 2 h; immunoblot
[3] = target: FLAG-PPIE (cyclophilin E) (mouse) (UniProt Q9QZH3); test: as above
[4] = target: Cyclophilin A (endogenous) (mouse (endogenous in mouse SCLC tumor-derived cell lines)) (UniProt P17742); test: proximity ligation; as a3, cells treated with 4-OHT and CsA for 48 h
[5] = target: Cyclophilin A (endogenous) (mouse (endogenous in mouse SCLC tumor-derived cell lines)) (UniProt P17742); test: proximity ligation; Duolink PLA on fixed Type D (4711-18) and Type V (4716-10) mouse SCLC cells treated with 4-OHT for 48 h; endogenous proteins; antibodies to p53 and to cyclophilin A, D or E
[6] = target: Cyclophilin D (endogenous) (mouse (endogenous in mouse SCLC tumor-derived cell lines)) (UniProt Q99KR7); test: as above
[7] = target: Cyclophilin E (endogenous) (mouse (endogenous in mouse SCLC tumor-derived cell lines)) (UniProt Q9QZH3); test: as above

binding [2]: binds
binding [3]: no binding
Molecule: HA-p53 (HA-Trp53) (from UniProt P02340 1-390)
binding [1]: no binding (condition: with Cyclosporin A (CsA))

binding [5]: binds
binding [6]: binds weakly
binding [7]: no binding
B1: p53 (endogenous, restored Trp53 allele) (natural protein, UniProt P02340 1-390, looked up)
chain: MTAMEESQSDISLELPLSQETFSGLWKLLPPEDILPSPHCMDDLLLPQDVEEFFEGPSEALRVSGAPAAQDPVTETPGPVAPAPATPWPLSSFVPSQKTYQGNYGFHLGFLQSGTAKSVMCTYSPPLNKLFCQLAKTCPVQLWVSATPPAGSRVRAMAIYKKSQHMTEVVRRCPHHERCSDGDGLAPPQHLIRVEGNLYPEYLEDRQTFRHSVVVPYEPPEAGSEYTTIHYKYMCNSSCMGGMNRRPILTIITLEDSSGNLLGRDSFEVRVCACPGRDRRTEEENFRKKEVLCPELPPGSAKRALPTCTSASPPQKKKPLDGEYFTLKIRGRKRFEMFRELNEALELKDAHATEESGDSRAHSSYLKTKKGQSTSRHKKTMVKKVGPDSD
notes: p53 expressed from the restored endogenous Trp53 allele (p53 R state) in cell lines derived from mouse SCLC tumors; source: endogenous, mouse SCLC Type D (4711-18) and Type V (4716-10) cells after 4-OHT, fixed cells
binding [4]: no binding (condition: with Cyclosporin A (CsA), 48 h)
